# Test results from the supplement of paper PMC3334620.
# In all, about 33,000 sequences were measured (“E-score (-0.5 to 0.5)”: median about -0.035, highest 2% from about 0.35 on). This is one part of the list.
# Biological target: T1, Pdr3 (UniProt P33200)
# T1 sequence: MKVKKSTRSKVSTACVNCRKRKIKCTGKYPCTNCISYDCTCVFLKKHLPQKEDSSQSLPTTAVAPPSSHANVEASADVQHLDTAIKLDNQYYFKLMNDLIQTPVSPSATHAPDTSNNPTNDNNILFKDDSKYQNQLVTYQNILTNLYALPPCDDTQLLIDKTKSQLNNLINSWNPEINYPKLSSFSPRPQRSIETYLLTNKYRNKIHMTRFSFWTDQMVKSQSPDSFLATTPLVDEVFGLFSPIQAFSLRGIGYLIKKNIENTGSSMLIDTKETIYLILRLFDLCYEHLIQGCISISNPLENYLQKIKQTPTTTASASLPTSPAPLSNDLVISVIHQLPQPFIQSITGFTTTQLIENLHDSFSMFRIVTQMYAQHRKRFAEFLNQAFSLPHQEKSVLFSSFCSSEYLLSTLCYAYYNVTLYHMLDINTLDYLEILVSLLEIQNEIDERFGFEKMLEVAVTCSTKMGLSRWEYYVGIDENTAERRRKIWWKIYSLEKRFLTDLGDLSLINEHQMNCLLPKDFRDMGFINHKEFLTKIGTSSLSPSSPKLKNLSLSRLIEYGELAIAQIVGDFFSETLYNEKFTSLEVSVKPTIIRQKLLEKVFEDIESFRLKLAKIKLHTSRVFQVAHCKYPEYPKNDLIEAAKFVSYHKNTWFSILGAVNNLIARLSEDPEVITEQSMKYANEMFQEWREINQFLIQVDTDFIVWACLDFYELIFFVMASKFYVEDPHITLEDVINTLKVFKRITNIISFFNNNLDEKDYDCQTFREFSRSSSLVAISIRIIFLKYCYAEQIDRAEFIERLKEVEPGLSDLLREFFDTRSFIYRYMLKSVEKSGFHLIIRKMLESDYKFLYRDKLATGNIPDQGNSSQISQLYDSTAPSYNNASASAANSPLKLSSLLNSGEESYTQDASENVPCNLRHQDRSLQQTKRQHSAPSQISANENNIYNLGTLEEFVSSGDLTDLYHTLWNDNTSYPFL
# Assay: PBM E-score (8-mer binding enrichment) (E-score (-0.5 to 0.5)); higher = stronger / more preferred TF binding; most listed sequences are background and not binding sites
# Conditions: protein concentration: 200 nM; construct: GST-full length
# Summary of the method: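 GST-tagged yeast TFs (full-length or DNA-binding domain) were made by PURExpress in vitro transcription/translation and applied at about 100-200 nM to universal all-10-mer Agilent arrays. The arrays were made double-stranded by primer extension, on fresh or once-stripped slides. Bound protein was detected with fluorescent anti-GST, and scans were normalised with masliner. Each ungapped eight-base word, pooled with its reverse complement, received an E-score (modified Wilcoxon-Mann-Whitney statistic) from the Universal PBM Analysis Suite.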
row,Sequence,PBM E-score
1,CCTCAGCA,-0.102
2,GAGAGGAC,-0.0109
3,TCTCCACA,-0.258
4,CACTGCGG,0.174
5,CAGAGGCC,-0.177
6,AACAATGC,-0.0311
7,AAGACCCT,-0.184
8,AAGGACCC,0.0181
9,GAAAATCC,0.0302
10,ACGAGATA,-0.128
11,GTATGGAC,0.0423
12,GCGCACGA,0.0416
13,GGATATCA,0.149
14,AGGATCCA,-0.0311
15,AAGCTCAT,-0.00906
16,CCTCACCC,0.054
17,GCTCTCAC,0.0179
18,GCAAATCA,-0.0772
19,ATATCGTC,-0.007
20,AACCTCTT,0.0276
21,AACGCTAC,-0.132
22,ACGCTGCA,-0.227
23,CCGAGAAC,0.282
24,AGGTCCGG,0.311
25,ACAGAACG,-0.104

row,Sequence,PBM E-score
1,AAGTCCGC,0.301
2,CTCCGCTA,0.11
3,GCTACCGA,-0.0841
4,CGCCTGCC,-0.0358
5,ACCTTGTA,-0.248
6,CACGAAAA,0.0145
7,GATCCCTA,-0.00857
8,GTCGGTGA,-0.119
9,AGGCCTAA,-0.0426
10,AACTCCCA,0.0333
11,ACACCTTG,-0.201
12,CCCCTGTC,-0.31
13,CCGTTTTC,0.202
14,ATAATATG,0.162
15,CGCTATCA,0.0421
16,GGATCGAA,0.133
17,CAACCGTA,-0.296
18,AAATAGCG,-0.017
19,GACGCACC,0.0145
20,CAAAACTA,-0.024
21,AAGCTGCC,-0.0128
22,AATCCTCA,-0.244
23,GAATGTAC,0.033
24,CCCCATTA,-0.27
25,ATTTACAC,-0.0644

row,Sequence,PBM E-score
1,CCGGCCAG,0.274
2,AGATCTTC,0.0237
3,GATAGAAC,-0.037
4,ATTGCTGA,-0.216
5,ATCCGGAC,0.355
6,CTGTAATA,0.0822
7,ATAAAAAT,-0.133
8,CCCGGGGA,0.414
9,CTCGAGCC,-0.114
10,AAGAACGC,-0.00283
11,ATTGGTTG,-0.0354
12,ATACTAGC,0.151
13,GATGACTA,-0.0876
14,CAATGTAC,-0.259
15,GGATCAAC,0.151
16,GATTTCCC,0.143
17,CGGCTAAC,0.13
18,ATTAGGAA,0.102
19,AACGTTAA,0.0967
20,AGCGGACT,-0.0134
21,CCGCCTAA,-0.0431
22,GCTGCCGA,0.117
23,GTACTCTA,-0.304
24,ACAACGCT,-0.19
25,AGTAGGTA,-0.115

row,Sequence,PBM E-score
1,CTTTCGCC,-0.057
2,GAACACTC,0.19
3,GATCGAAA,0.015
4,GAAGATTC,0.168
5,AAGAGTTC,-0.178
6,GAAAGTTC,0.088
7,ATAAGGTA,-0.0443
8,TCCTTCGA,0.0546
9,AGCTTGGA,-0.283
10,ACAGGTCC,0.027
11,AATATCAA,-0.0303
12,CGGTAGAC,0.091
13,AATTGCGA,-0.0345
14,AACGTCCT,-0.123
15,AGACAAGA,0.116
16,TAACACAA,-0.0485
17,CGCAGCAG,0.0447
18,GTGCCGAA,0.253
19,AGGCAGGA,-0.149
20,AAGAACAG,-0.125
21,AGTTGTAC,0.0563
22,CGAGAGTC,-0.239
23,CGGCTTAC,0.131
24,AAGGAAAT,0.00091
25,ATCTGTCC,0.236

row,Sequence,PBM E-score
1,AGGAGGGG,-0.09
2,GCACATTA,-0.00739
3,AACTCGCA,-0.209
4,AAATTGAA,-0.227
5,CTCACGAA,-0.196
6,CCTAGCCA,-0.182
7,ATATGGGA,-0.0119
8,AAGAGAAC,-0.104
9,CAAAGAAG,-0.102
10,CCATGGAG,0.0797
11,GACAGCAC,0.0832
12,AGCGGGTC,-0.0457
13,GACAGAAA,0.0471
14,TAGAGATA,-0.0203
15,CCGACGTC,0.156
16,ACTCCTCT,-0.00039
17,CTATTCTC,-0.0123
18,CTGGGCAC,-0.116
19,CATACTAA,-0.0484
20,ACTGATAA,-0.103
21,ACGTGGTC,-0.208
22,AGTTAATG,-0.21
23,ATTAATCC,0.152
24,CCCACGCA,0.0166
25,TCTGCTAA,-0.155

row,Sequence,PBM E-score
1,ACACTTAA,-0.0417
2,AACCCCGT,0.181
3,ATGTAGGG,0.0264
4,ACTGGATA,0.105
5,CTTGCTAC,-0.1
6,TCGTTTCA,-0.00013
7,CGAGTCGA,-0.055
8,ACATTGCC,-0.0168
9,CGGGAGAG,0.0626
10,AGCGAATC,-0.0182
11,GATACTCC,0.0931
12,GCCTAGAC,-0.209
13,CAGTATAA,0.108
14,AAACAGTC,-0.227
15,CTCGCAAC,-0.121
16,GCCTACGC,-0.27
17,AATAATAG,-0.218
18,CATCGCGC,0.12
19,AAAGTATG,-0.0427
20,CAAAAAAG,-0.103
21,ACGTGGTA,-0.126
22,GATACCAA,0.147
23,CTTGACGA,-0.0773
24,AGCCCGTC,-0.0788
25,AAAACGAA,0.0577

row,Sequence,PBM E-score
1,CGGATGCC,0.222
2,AATATTGG,0.0207
3,AATGGTTG,0.119
4,AGGCCGCG,0.199
5,CAAACTCG,0.0644
6,AGTATGAG,0.0117
7,CGTTAGAC,-0.0556
8,ATTCGCAC,-0.00251
9,GATAGAGA,-0.0875
10,ACCGGAAT,0.411
11,GAACGGAA,0.469
12,CAAATGAG,-0.245
13,CCCTGGAC,-0.00074
14,GCCTATTA,-0.02
15,CACGACAG,0.0118
16,CATGAACA,-0.0468
17,AATTCTCC,0.219
18,GCCACCCC,-0.0447
19,ACAGACGT,-0.0312
20,CACATATA,-0.0666
21,CATTGATA,0.138
22,TGAAGTCA,-0.0672
